# Reference: the supplement of paper PMC11417369
# ± gives the standard deviation of the averaged measurements. The list shows a part of the results.
# Test system: PfAP2-LT AP2 domain (GST-tagged)
# Experiment: gcPBM binding intensity (ln(normalized median fluorescence intensity)); higher = stronger DNA binding
# Outline: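 Binding intensity is the highest Masliner-normalised natural-log median intensity over replicate spots in either probe orientation. To obtain it, GST-tagged P. falciparum DNA-binding domains made in E. coli were incubated for 1 h on an Agilent 4 × 180k array of primer-extended double-stranded 36-bp intergenic genomic probes plus negative controls. Detection used Alexa488 anti-GST antibody with scanning at 488 nm.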
row,Sequence,gcPBM binding intensity (ln)
1,ATATAAGAATTTAAGAGTACATTCACTTCAAATTTA [XGTACX_site2115],8.48 ± 0.5
2,ATATAATATATTTTCACACATATTTTATGATGATAA [CACACA_site5614],8.68 ± 0.41
3,ATAACATAACATAATACACACATATAAAAAAGAAAT [CACACA_site3028],9.37 ± 0.34
4,AAATTTAATTTTATATCACACATTAAATTTTAATGG [CACACA_site4251],8.61 ± 0.36
5,AAAAAAAAAAAAAAAGGTACAGTAAAAAATTCCTCT [XGTACX_site5947],8.47 ± 0.54
6,TTTTAAAAAAATAAATAAATAGAAAAAAAAAATAAA [TGCATGCA_negctrl_site579],8.2 ± 0.52
7,GGATATATTTTATGTACACACATATATAACGGATAT [CACACA_site4847],9.11 ± 0.34
8,TATTATGACTTAAGTTGTACTGTTGAAAGAAGAAAA [XGTACX_site2985],8.48 ± 0.44
9,ATAATCCTTAAACACACACACACACTAATAAATAAA [CACACA_site8052],10.1 ± 0.25
10,TTGTTTCCTTAATATTCACACACATATATATAATAT [CACACA_site8553],9.23 ± 0.35
11,AAAAGTTATAGACACACACACATATAAATATAGATT [CACACA_site6617],9.57 ± 0.3
12,ATAAAAATTAAAGAATGTACACATATAATATATGTA [XGTACX_site8735],8.65 ± 0.45
13,TATAAATGTATACAAGTGCATATTATTCACACATAA,8.84 ± 0.45
14,GTATTATACCATAATGCATGTTAACTTCAAAAGAAA [TGCATGCA_site839],8.67 ± 0.48
15,GAAATTATTATATAAACACACATTTATTTTATTTTA [CACACA_site1957],8.56 ± 0.44
16,CGTATAAATAAATACACACACATATAAATATGTAAA [CACACA_site6236],9.3 ± 0.38
17,TAATATATTGTAGATGCATGCATTAACTATTACAAA [TGCATGCA_site190],8.89 ± 0.4
18,TATCAATGGAAAATATATATTTGTATATATGTAATA [XGTACX_negctrl_site257],8.55 ± 0.49
19,TATAAAAATAATATTACACACATGTAAAATGTCGGT [CACACA_site3264],9.03 ± 0.42

row,Sequence,gcPBM binding intensity (ln)
1,AGCATTTATGAAAAATGTACACACATCAAATGCTTA [XGTACX_site8749],8.91 ± 0.42
2,ACACATGACATCCGTTGTACAATCATCATAAAAATG [XGTACX_site5397],9.01 ± 0.41
3,TACGTGAAATTATATACACACATAAATATGTCTGTA [CACACA_site3122],8.99 ± 0.39
4,AAGCTACACATAGATTATTATTAATTTAATGTATAT [CACACA_negctrl_site548],8.56 ± 0.38
5,ACAAGCTTTCATAAGGTGCAATGATTTAACAAAAAA [GTGCAC_site9726],8.53 ± 0.47
6,AATTATTAGCGTGGTGTGCACAAAATTATGGACACA,9.2 ± 0.51
7,TATATATTATACACGTGTACACATTATAACAATATA [XGTACX_site7799],8.98 ± 0.38
8,TTTCCCTTAAATTAATGTACATAAATTGAAAATACC [XGTACX_site1602],8.44 ± 0.35
9,TAAAATTTTTTTGTTTGTACATATATATATATAATA [XGTACX_site5609],8.52 ± 0.39
10,AAAAAAATAAATAAATACATACATATATATATGTAT [GTGCAC_negctrl_site510],8.69 ± 0.47
11,AAAAAAAAAAAACACACACACAAAAAAAAATATATA [CACACA_site1105],9.85 ± 0.54
12,TTGCCCCAGGAGTTCACACACATAATAGATTGTCAC [CACACA_site726],9.36 ± 0.4
13,AGCAACCCCCTAGCTACACACATATAGATATATATA [CACACA_site951],9.6 ± 0.2
14,TTTCTTATCAACCTTTTTTTTTTTTTTTTATTCTTA [TGCATGCA_negctrl_site162],8.46 ± 0.49
15,AATTTAATTTTTTCGTGTACTTATATAGGAGGTTTT [XGTACX_site8310],8.74 ± 0.47
16,CAATTAAAGATATGAACACACATGTGAACTTTCTAT [CACACA_site7796],9 ± 0.4
17,AGAAGAAATATGTAAAAAATTTTATATTCACACACA [GTGCAC_negctrl_site441],8.97 ± 0.36
18,CCCATATTATAGGTGTGTACATAAAAGTATATATAA [XGTACX_site3629],9.16 ± 0.45
19,TGTTCTTATACTAATAGTACTTTTAGGTACTATAAA [XGTACX_site2954],8.45 ± 0.47

row,Sequence,gcPBM binding intensity (ln)
1,TGTAGACATTAATGTAGTACAATATATATATATATT [XGTACX_site8608],9.23 ± 0.62
2,TTTATATATAATGTTGCATGTCAAATTTGTATATGG [TGCATGCA_site246],8.79 ± 0.42
3,ATATTTTTCCAACATCGTACATTATGAGTCAAAATT [XGTACX_site993],8.65 ± 0.51
4,CCATAAAAAGGTACATGTACAAAAAGCAAAAATATG [XGTACX_site5543],9.18 ± 0.47
5,AATGTAAAACTAATATGTACATATCTCTAAAGAAAT [XGTACX_site8429],8.88 ± 0.42
6,CGTACTAACATAAAGACACACACCACATATAATAAA [CACACA_site3603],9.56 ± 0.3
7,ATTGTCTTCCTTCTGGTGCGATGTATAGGTAAAGAT,8.93 ± 0.25
8,AACTCATCTTATAATTGTACATATTTATAAAAAGTA [XGTACX_site6522],8.43 ± 0.42
9,TGTAGAAATGGGTGCACACACATATATAATATATAT [CACACA_site2507],9.34 ± 0.42
10,AAAAAAAAAAAAAAAAAAAAAAAAAAAAAATATATA [GTGCAC_negctrl_site6],8.8 ± 0.21
11,TTAGGGATGCTGAAATGTACACATTTAAATTATATA [XGTACX_site3000],8.66 ± 0.49
12,GTATATATATATATATATATATATATATATATATAT [CACACA_negctrl_site609],9.63 ± 0.042
13,TCTCCATCTTATGAGACATGCACTTTTTATTTAATA [TGCATGCA_site121],8.78 ± 0.46
14,AAAAAATAAAAAAGGTGGTCATGTCACAAATACTTT [XGTACX_site7454],9.02 ± 0.48
15,TGTGTATACTTGTGTATACCAAATTAAAGACGCTTT [CACACA_negctrl_site1359],8.76 ± 0.38
16,TAAAAGTGATATGTTCGTACGTATTTATATGTAATA [XGTACX_site211],8.7 ± 0.41
17,TTTTTCTTTTTTTGGGGTACAGGGAAATCTATATTT [XGTACX_site7025],8.8 ± 0.28
18,TCTTAATTTTTGAAGGTACACACTAATATATTAAAT [CACACA_site1191],8.57 ± 0.42
19,TTGTGTAAATGTTAAGTGCATTTGGTAAAATATAAA [GTGCAC_site9699],8.66 ± 0.47
